Test results taken from PubChem BioAssay AID1508624 (National Center for Advancing Translational Sciences (NCATS), 2021).
The whole screen tested about 48,000 compounds, of which about 120 (0.25%) were called active. About 4% were inconclusive and are not listed. Calls come from the whole dose curve; as a rule, active = well fitted activation curve with a large enough effect; inconclusive = small, poorly fitted or top-dose-only effect, or another doubt; inactive = no such curve, though single readings can be large or run the other way. Some of the results follow.

Test: Primary qHTS for Identification of Small Molecule Activators of Huntingtin-Antisense Promoter Activity; note: nearly all actives have a fitted effect of over 55% in size
Conditions: HEK293 HTT-AS promoter firefly luciferase reporter (activity 0% = vehicle and -100% = no light), 24 h; series mostly up to 57.5 µM; activity change, positive = activation: at the top concentration
In short: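 Quantitative HTS used concentration series of up to 57.5 uM final on HEK293 luciferase reporter cells, 24 h at 37 degrees C. Readout was Dual-Glo firefly luminescence.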

Activity change, positive = activation, inactive:
CCOC(=O)c1ccc2ncc3c(-c4ccccc4)nn(-c4ccc(F)c(Cl)c4)c3c2c1 -2.14%
O=C(N[C@@H](c1ccccc1)[C@@H]1CCCCN1)c1cccc(C(F)(F)F)c1Cl -45.3%
CCc1ccccc1N1CC(c2nc3ccccc3n2CCCCOc2ccccc2)CC1=O (stereo unspecified) -7.35%
CC(=O)c1ccc(N2CCN(S(=O)(=O)c3ccc4c(c3)C(C)(C)C(=O)N4)CC2)cc1 -35.9%
Oc1ccccc1-c1nc(/C=C/c2ccc(F)cc2)nn1-c1ccccc1 2.6%
CCCn1c2ccccc2c2cnn(CC(=O)N(CCCOC)Cc3ccco3)c(=O)c21 -35%
CC(=O)N1CCc2nc3sc(C(=O)Nc4ccc(Cl)cc4F)c(N)c3c(C(F)(F)F)c2C1 0.0548%
CCOc1ccccc1NC(=O)Cn1c(=O)ccc2cc(S(=O)(=O)N3CCCC3)ccc21 -33.3%
CC(Oc1ccccc1)C(=O)Nc1nnc2n1CCS2 (stereo unspecified) -12.9%
COc1cc(-c2nc3nc(C)cc(C)n3c2Nc2ccc(Cl)cc2)ccc1O -28.5%
COc1ccc(C(=O)Nc2ccc(-c3nnc4n3CCCCC4)cc2)cc1OC -25.8%
COC(=O)c1cccc(-n2c(CCC(=O)O)ccc2-c2cccs2)c1 33.5%
COc1ccc(Cn2c(C(=O)O)c(CNCc3ccc(C)o3)c3ccc(C)cc32)cc1 -31.1%
Cc1ccc(NC(=O)c2ccc(-n3c(C)nnc3C)cc2)cc1F -6.98%
CCOC(=O)c1c(-c2ccc(C)cc2)csc1NC(=O)c1nc(SC(C)C)ncc1Cl -24.7%
CCc1ccccc1NC(=O)C1CCCN(C(=O)c2cnn(-c3ccccc3)c2-n2cccc2)C1 (stereo unspecified) -27.4%
CCCc1nc(SCc2cc(=O)c3ccc(C)c(C)c3[nH]2)n[nH]1 -23.7%
CCC(C(=O)NCCc1ccccc1)n1nc(C)n2c(cc3sccc32)c1=O (stereo unspecified) -21.8%
COc1ccc(S(=O)(=O)N2CCN(Cc3nc4ccc(C)cc4o3)CC2)cc1Cl -34.6%
CCOc1ccccc1NC(=O)c1c(NC(=O)c2cccc(C)c2)sc2c1CCC2 -11.9%
CCOc1ccc(N2CC(NC(=O)c3ccc(S(=O)(=O)N4CCCCC4)cc3)CC2=O)cc1 (stereo unspecified) -16%
Cc1ccc(-c2cc(C(F)(F)F)n3nc(C(=O)NCC45CC6CC(CC(C6)C4)C5)cc3n2)cc1 -6.92%
CCc1cc2c(cc3c(=O)n(CC(=O)NC4CCC(C)CC4)ncn32)s1 (stereo unspecified) -11.1%
Cc1ccc(NC(=O)CSc2nc3ccccc3nc2N2CCOCC2)cc1 -24.3%
COc1cc2nc(NCc3ccc(C)cc3)n3nc(-c4ccccc4)nc3c2cc1OC -11.5%
COc1ccc(CCNC(=O)CS(=O)Cc2nc(-c3ccccc3F)oc2C)cc1OC (stereo unspecified) -12.9%
COc1cc(NC(=O)CSc2ncccc2C(=O)OC(C)C)cc(OC)c1 -25%
Cc1cc(C(=O)NCc2ccccc2Cl)c2c(C)nn(-c3ccccc3)c2n1 -1.4%
CCN1C(C(=O)c2ccccc2)=C(OC(=O)c2ccccc2OC)c2ccccc2S1(=O)=O -37.4%
CCN(CC)CCNC(=O)c1ccc2c(=O)n3nc(Nc4ccccc4OC)sc3nc2c1 -21.1%
CCOc1ccc(-c2nc(CSCC(=O)NCc3ccc(Cl)cc3)c(C)o2)cc1 -51.1%
O=S1(=O)c2ccccc2N(Cc2cccc(Cl)c2)c2ccccc21 -29.3%
COc1cccc(CNC(=O)C2CCN(c3nnc(-n4c(C)ccc4C)s3)CC2)c1OC 4.42%
CC(=O)c1cc2c(cc1N/C(=N/S(=O)(=O)c1ccc(C)cc1)c1ccc(F)cc1)OCO2 -22.4%
CC(C)CCNC(=O)CN1C(=O)CSc2ccc(S(=O)(=O)N3CCCCC3)cc21 -17.1%
Cc1c(C(=O)N2CCN(c3ccccc3)CC2)sc2nc3n(c(=O)c12)CCC3 -11.7%
COc1ccc(CCNC(=O)c2ccc3c(c2)ncn3-c2ccc(C)cc2C)cc1OC -19%
CCc1ccc(S(=O)(=O)c2nnn3c2nc(NC(C)C)c2sccc23)cc1 -12.6%
COc1ccccc1CNC(=O)CCCn1c(=O)c2ccccc2n(CC(=O)Nc2c(C)cc(C)cc2C)c1=O -7.62%
COCCCNC(=O)c1ccc2c(c1)N(Cc1ccccc1)C(=O)c1ccccc1S2 -28.6%
O=C(CSc1nc(=O)n(CCN2CCOCC2)c2c1CCC2)Nc1ccccc1 -11%
CCOC(=O)c1sc(NC(=O)C2c3ccccc3Oc3ccccc32)c(C(=O)OCC)c1C -33%
CCOC(=O)c1cccnc1 -3.76%
CCn1cc(C(=O)NCc2ccccc2Cl)c(=O)c2cc(S(=O)(=O)N3CCc4ccccc4C3)ccc21 -17.6%
COc1ccc(C(=O)Nc2nnc(S(=O)(=O)N(CC(C)C)c3ccc(C)cc3)s2)cc1OC -19.1%
CN(C)CCOC(=O)COc1ccc(Cl)cc1 -0.926%
COC(=O)c1cccnc1-n1c(=O)c2cccnc2n(CC(=O)Nc2ccc(C)cc2C)c1=O -0.685%
O=C(Nc1cc(C(F)(F)F)ccc1Cl)c1cc(-c2ccc3c(c2)OCCO3)on1 4.46%
O=C(Nc1ccc(S(=O)(=O)Nc2ncccn2)cc1)c1ccccc1Cl -6.68%
Cc1ccc2c(c1)N(C(=O)CCC(=O)NCc1ccccc1Cl)CC(C)O2 (stereo unspecified) -17.5%
CC(NC(=O)Cn1c(=O)oc2cc(S(=O)(=O)NCc3ccccc3)ccc21)c1ccccc1 (stereo unspecified) -21.8%
Cc1ccccc1Nc1nc(-c2cccc(Cl)c2)c2c(n1)-c1ccccc1OC2 -11.7%
CC(=O)c1ccc(NC(=O)COc2ccccc2-c2nc(-c3cccc(C)c3)no2)cc1 -2.36%
Brc1c(NC2=NCCN2)ccc2nccnc12 -13%
COc1ccc(Nc2nc(N)c3cc(OC)c(OC)cc3n2)cc1 -3.78%
CC1CCc2c(sc(NC(=O)C3c4ccccc4Oc4ccccc43)c2C(=O)OC(C)C)C1 (stereo unspecified) -16.3%
CCOC(=O)c1scc(-c2ccccc2)c1S(=O)(=O)Nc1cc(Cl)c(OC)cc1OC -36%
COC(=O)c1ccc(CSc2nc3c([nH]c4ccccc43)c(=O)n2-c2ccc(OC)cc2)o1 -27.3%
COc1cccc(CNC(=O)c2nn(-c3ccc(C)cc3)c(=O)c3c2c2ccccc2n3C)c1 -32.4%
CCOC(=O)c1oc2ccc(S(=O)(=O)n3nc(-c4ccc(Br)cc4)cc3N)cc2c1C -36.7%
COc1ccc(CNC(=O)c2c3c(nc4ccccc24)C(=O)N(C2CCCCC2)C3)cc1 -13.6%
